According to PMC6212790:
This is one part of the list. At the low end of the ranking the order means little.

What follows are sequences tested against T1, GST-Rok-C97-191 (UniProt O34857) (assay: protein binding microarray). Conditions: Rok is a gene silencer of Bacillus subtilis; high values mean tight binding; most listed sequences are background and not binding sites; double strand, one strand shown.
T1 sequence: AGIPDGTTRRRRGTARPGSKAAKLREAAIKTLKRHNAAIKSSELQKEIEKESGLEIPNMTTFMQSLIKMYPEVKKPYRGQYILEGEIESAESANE
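Note: rank score from −0.5 (least bound) to 0.5 (best bound).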

Sequence	binding signal [E-score]
CTATATAG	0.413
CAAAACGG	-0.113
CCGCGCTC	-0.261
TGACTTAA	0.00425
CCGGCGTA	-0.16
CAAGTGTG	-0.0299
CGTTACTC	-0.113
AGCGTCCG	-0.142
GTCTGACA	-0.163
ACAGTTAT	0.255
GTGGTACA	0.03
CAGGTACC	0.16
AACATGTT	-0.0625
AAAAGCCA	0.0391
CTTTACGA	-0.00359
GAGCTCCA	0.048
CCCCTCAA	-0.154
GAAGTACC	0.138
CGCCGCGA	-0.125
GCACACGA	-0.0278
CCCTTTAA	-0.0129
CAGTGGAG	-0.197

Sequence	binding signal [E-score]
CCAGACAC	-0.145
CATCCAGA	-0.134
GAATGTTA	0.159
CGAACCTC	-0.238
CGTCAGAG	-0.2
AGGTCAAC	-0.116
ACGTAGAT	0.219
AAGTGCAA	-0.052
CATATACC	0.222
GTACGTTA	0.221
ATGTTAAC	0.157
AGCGGCAG	-0.3
ATTCACCA	0.126
ATAGACCG	0.139
CGCAGATC	-0.17
CTACGGAG	0.083
ATGAGTTA	0.222
GCGTCTAA	-0.0779
AAACTTGT	0.0347
TGAACGAA	0.00482
AGCAGGCT	-0.0665
AAGACGCT	-0.239

Sequence	binding signal [E-score]
GATCGTAA	-0.0815
ATTCTACA	0.382
ATGGAAGG	-0.165
ATGACTTA	0.024
GCGAGTAC	0.0245
ACCTCCTG	-0.301
GGGTGCTA	-0.17
TAACCGCA	0.0332
TACCACAA	0.193
TCAGATCA	-0.117
AATTCGCA	0.129
GCGAAAGC	-0.253
GTATGGAA	-0.108
GTCAGAAC	0.0868
AGCGTTGA	-0.0912
GACATCCC	-0.332
GTGTAGGA	-0.0878
AGACCGCA	-0.043
CCAGTACG	-0.174
ATCCCGAG	-0.0929
ATACCACG	0.0833
AGGCCTAG	0.0496

Sequence	binding signal [E-score]
CCGTGGTC	-0.0945
CACTGTGA	0.0741
AGCTTAAG	-0.183
ATGTTCGA	0.0616
AAGTAGTG	0.211
ACGGGAGC	-0.351
AAGTGGCA	-0.0203
GGGAGCCC	-0.353
ACCAAAAG	-0.0914
ACATGTCG	0.044
AAAAAGCG	-0.0544
AATCCAGT	0.118
ACACTTTC	0.15
GCGGAGCC	-0.301
CACTAAGA	-0.241
AGGCCATA	-0.254
ACCTCCAA	-0.125
CTGTCGTA	-0.069
ACCCCATC	-0.162
CACCGGAA	-0.0186
